Measured values as given in patent US20120034162A1, “Fullerene Assisted Cell Penetrating Peptides” (William March Rice University, priority 2006, published 2012).

Tests used:
[1] = tested on: neuroblastoma cell line (IMR 32); assay: Cellular uptake by fluorescence microscopy with DAPI staining; assay type: cell-based; conditions: IMR 32 cells, 24 hrs, 37° C.
Description: In order to show the generality of our results we have also studied the uptake of H-Baa-Lys(FITC)-NLS into neuroblastoma cell line (IMR 32). Neuroblastoma is the most common extracranial solid tumor in children and is responsible for 8-10% of pediatric tumors and 15% of pediatric cancer deaths. Neuroblastoma cells are known for their difficulty in transfection through the cell membrane. H-Baa-Lys(FITC)-NLS was incubated with IMR 32 cells for 24 hrs at 37° C. The cells were then washed with PBS buffer and treated with DAPI nuclei staining dye prior to observation with a fluorescence microscope.

[2] = assay type: in vitro ADME, bovine
Excerpt: Peptide stability. In order to test the stability of the fullerene peptide linkage, samples of Baa-Lys(FITC)-Lys8-OH and H-Baa-Lys(FITC)-NLS were exposed to bovine plasma for up to 3 days and analyzed by HPLC.

[3] = tested on: MCF-7 breast cancer cells; assay: Cellular proliferation, CCK-8 assay; assay type: cell-based; conditions: MCF-7, 48 h, concentration given with value
Description: Cellular proliferation studies. Cancer cells at 5×10^4 cells/well were plated in triplicate in standard flat-bottomed 96-well tissue culture plates in the presence of fullerene peptides in PBS buffer with a final volume of 100 μL. Unless otherwise indicated, cells were grown for 48 h at 37° C. in a CO2 incubator. Relative cell growth was determined by Cell Counting Kit-8 (CCK-8) cell proliferation assay as described by the manufacturer using an automated plate reader. Results were calculated in a blinded fashion and are the means of bi or triplicate determinations.
The effect of different Baa-peptide sequences on the cell viability of MCF-7 breast cancer cells was investigated to determine if the sequence has an effect rather than the presence of the C60. […] This is in agreement with the MTT cell viability test (see above). […] Clearly the sequence has a significant effect on the cell viability. However, it is worth noting that this may be due to either inherent differences in toxicity or differences in cellular uptake.

[4] = Aggregate size and morphology by cryo-TEM; assay type: physicochemical; conditions: 1.0 mg/mL in PBS buffer, pH 7
Description: To further examine the actual aggregate size and morphology, cryo-TEM experiments were performed for both peptides 25 and 26. The images were taken in the concentration of 1.0 mg/mL for both peptides. Samples for cryo-TEM studies were prepared by dipping a copper grid coated with amorphous carbon-holey film into the sample solution. The TEM images were mainly taken in the hole region of the TEM grid to minimize the artificial effect from the samples or ice. […] Both peptides forms spherical and ellipsoidal clusters, with an average aggregate sizes of 40-80 nm for 25 and 50-150 nm for 26, which are generally smaller than the diameters observed by DLS. Consistent with the DLS study, Baa-Lys(FITC)-Lys8-OH (25) are more uniform in size than Baa-Lys(FITC)-NLS (26). FIGS. 9a and 9b show the vitreous ice cryo-TEM micrograph of the large aggregates (9a) and small aggregates (9b) formed by Baa-Lys(FITC)-Lys8-OH in PBS buffer (1 mg/mL at pH=7). There are two dominant groups in size for 25; one type has the diameter of 40-80 nm with predominant population at size of ca. 50 nm, and the other population has a diameter less than 20 nm, which may correspondent to the size of fullerene peptides itself. […]

[5] = tested on: HEK-293a cells; assay: Cellular uptake by fluorescence microscopy; assay type: cell-based, human
[6] = tested on: HEK-293a cells; assay: Cellular uptake by fluorescence microscopy; assay type: cell-based, human; conditions: for cellular uptake / localization by fluorescence: 40 μM, 24 hrs, 37° C.
Description: Cellular uptake. An immortalized human embryonic kidney epithelial cancer cell line was used in initial cellular uptake studies. HEK-293a cells were cultured in RMPI 1640 medium supplemented with 10% fetal bovine serum (FBS) in 5% CO2 and 37° C. humidified incubator. The medium was supplemented with penicillin (100 U·mL^−1), streptomycin (100 μg/mL), and glutamine (2 mM). For experiments and microscopy, cells were seeded at 1×10^4 cells per well on 6-well plates and grown for two days in RPMI supplemented with 10%. Cells were incubated with each peptide (40 μM) for 24 hrs at 37° C. After treatment, the cells were washed with RPMI supplemented with 10% FBS and phosphate buffered saline (PBS, 10 mM). Fluorescence was observed by a fluorescent microscope equipped with FITC and red filters.

[7] = Peptide aggregation, particle size in solution by dynamic light scattering (DLS); assay type: physicochemical; conditions: PBS buffer
Description: Rink amide and Wang resin were obtained from Novabiochem, USA. Amino acids were purchased from Novabiochem and used as received. MALDI-TOF mass analysis was performed on a linear Protein-TOF Bruker instrument using sinipinic acid as the matrix. CD spectra were obtained on a Jasco J-700 dichrometer using 1 mm path-length quartz cells. Peptide solutions were 1.0 mg·mL^−1 solution in milliQ H2O or PBS buffer. In the case of peptides (21, 22 and 23), the pH was first adjusted to 10 to break up any aggregations and then adjusted by addition of 0.1 mM HCl until the desired pH was obtained. CD spectra were recorded in millidegrees and converted to residual molar ellipticity. TEM measurements were performed on a JEOL 2010 TEM at 200 kV. DLS Measurements were performed on the samples using an Brookhaven 90Plus submicron particle-size analyzer with HeNe laser (30 mW) that operates at […] wavelength.
With reference back to Table 1, in order to understand the intracellular transport of the FITC functionalized Baa-peptides, 25 and Baa-Lys(FITC)-NLS (26), their particle size in solution was determined by dynamic light scattering (DLS). Three series of solutions of 24, 25 and 26 in the range of 0.125-2.0 mg/mL was prepared by weighing method. PBS buffer prepared from HPLC grade water was used as solvent and was filtered through a […] cup filter (Millipore, Express).

Baa-Lys(FITC)-Pro-Lys-Lys-Lys-Arg-Lys-Val-OH [Peptide 26]
cellular uptake / localization by fluorescence [1]: intense point fluorescence in cytoplasm | degradation of the sample in bovine plasma [2]: No degradation | inhibition of cell growth [3]: no inhibition of cell growth up to 40 μM | average aggregate size (large aggregates) [4]: 50-150 nm | cellular uptake at 4° C. [5]: no cellular uptake activity | cellular uptake / localization by fluorescence ([6]; […]): accumulate significantly in the nucleus | cellular uptake / localization by fluorescence ([6]; listed as H-Baa-Lys(FITC)-NLS): localized intense fluorescence in the center of the cells | Active Cellular Uptake ([6]; HEK-293a cells): Yes | aggregate size, minor smaller component [7]: ca. 40 nm | fraction of major aggregate component [7]: ca. 80% | third larger aggregate size at high concentration ([7]; 2.0 mg/mL (25), above 1.0 mg/mL (26)): ca. 800 nm | aggregate size, major (or single) component ([7]; 0.125-2.0 mg/mL): ca. 250 nm
